# Test results as given in PubChem BioAssay AID624296 (National Center for Advancing Translational Sciences (NCATS), 2012).
# Among all 350,000 compounds or so, about 9,900 (2.8%) were called active. The inconclusive results got no clear call from the source; some entries with a clear call stand among them for comparison. Calls follow the shape of the dose curve; as a rule, active = well fitted activation curve with a large enough effect; inconclusive = small, poorly fitted or top-dose-only effect; inactive = no such curve, though single readings can be large or run the other way. Potencies of inconclusive entries are left out as doubtful fits.
# Assay: A quantitative high throughput screen for small molecules that induce DNA re-replication in MCF 10a normal breast cells. Also: nearly all actives have a fitted effect of over 50% in size. As to activity, positive = re-replication: % of control where 0% means no effect.
# Conditions: MCF 10A DNA re-replication, Hoechst nuclear intensity, 48 h; activity, positive = re-replication: at 46.1 µM (top of the series)
# Potency is read from the fitted curve at half-maximal effect; tags tell the direction and shape of the fitted curve.
SMILES,"activity, positive = re-replication",Potency
Cc1cccc(OCCCC(=O)Nc2nnc(C3CCCO3)s2)c1C (stereo not given),inactive: 11.3%,–
Cc1ccc(F)c([C@H]2[C@H]3C=CC[C@@H](C)[C@@H]3C(=O)N2Cc2ccccc2)c1,–,"inconclusive [activator, partial curve, poor fit]"
CCCCC(=O)Nc1ccc(C(=O)NNC(=S)NC(=O)c2ccccc2[N+](=O)[O-])cc1,inactive: 1.04%,–
Cc1ccc(OCC(=O)N/N=C/c2ccc3c(c2)OCO3)cc1C,–,"inconclusive [activator, partial curve, poor fit]"
Cc1cccc(NS(=O)(=O)c2cc(C(=O)NCCC3=CCCCC3)ccc2Cl)c1,–,"inconclusive [activator, single point]"
O=C(CC1S/C(=N/N=C/c2cccs2)NC1=O)Nc1ccc(Cl)c(Cl)c1 (stereo not given),–,"inconclusive [activator, partial curve, poor fit]"
C#CCNC(=O)C1=C[C@@H](C2CCCCC2)C[C@@H](OCc2ccc(CO)cc2)O1,–,"inconclusive [activator, single point]"
CCOC(=O)C1CN(S(=O)(=O)c2ccc(OC)cc2)c2cc(CC(=O)OC)ccc2O1 (stereo not given),–,"inconclusive [activator, partial curve, poor fit]"
COc1ccc(CN2CCN(S(=O)(=O)c3ccc(F)cc3)CC2)c(OC)c1OC,–,"inconclusive [activator, partial curve, poor fit]"
CS(=O)(=O)N1CCN(c2ccccc2NC(=O)c2ccc(-c3ccc(Br)cc3)o2)CC1,inactive: -2.61%,–
COc1ccccc1N1CCN(C(=O)c2ccc(N(C)S(=O)(=O)c3ccccc3)cc2)CC1,–,"inconclusive [activator, partial curve]"
Cc1nc(CC(=O)O)c(-c2ccccc2)s1,–,"inconclusive [activator, single point]"
COc1ccccc1NC(=O)Cc1cccs1,–,"inconclusive [activator, full curve, poor fit]"
O=C(CCN1C(=O)C2C3C=CC(C3)C2C1=O)NC1CCCCC1 (stereo not given),–,"inconclusive [activator, partial curve]"
Cc1ccc(NC(=O)CN(C)C(=O)COC(=O)c2ccc(NC(=O)CC#N)cc2)cc1,–,"inconclusive [activator, single point]"
Cc1cc(NS(=O)(=O)c2ccc(NC(=O)COc3ccc(Br)cc3)cc2)nc(C)n1,–,active: 18.4 µM
c1ccc(C(c2ccccc2)c2noc(CN3CCN(CC4CC4)CC3)n2)cc1,–,"inconclusive [activator, partial curve, poor fit]"
Cc1ccc(NC(=O)c2ccc(C)cc2)cc1,–,"inconclusive [activator, single point]"
Cc1nc2c(C)cccc2cc1C(=O)N/N=C/c1ccc(N(C)C)cc1,–,"inconclusive [activator, single point]"
CCC(C)Sc1nc2c(c(=O)[nH]1)C(c1cccs1)C1=C(CCCC1=O)N2 (stereo not given),–,"inconclusive [activator, partial curve, poor fit]"
COc1cccc(CNC(=O)c2cccc(S(=O)(=O)N3CCN(c4ccc(F)cc4)CC3)c2)c1,inactive: 9.83%,–
Cc1cc(C)c2nc(NCCCNC(=S)NCCCN(C)C)c(C#N)cc2c1,–,active: 18.4 µM
O=C(Cn1nnnc1CN1CCOCC1)N1CCC(c2cccc(Cl)c2)C1 (stereo not given),inactive: -0.517%,–
Cc1ccc(NC(=O)CSc2nc3nc(C)cc(C)c3c(=O)[nH]2)cc1,–,"inconclusive [activator, partial curve, poor fit]"

SMILES,"activity, positive = re-replication",Potency
COc1ccc(CNC(=O)C23CC4CC(CC(Br)(C4)C2)C3)cc1,inactive: -32.3%,–
C(=C\c1nccc2c1[nH]c1ccccc12)/c1ccccc1,inconclusive: 292% [activator],–
CC(C)(C)NCC(O)c1ccc(O)c(CO)c1 (stereo not given),–,inactive
Cc1[nH]c2ccccc2c1C(O)c1ccncc1 (stereo not given),inactive: 2.9%,–
Cc1cccc2c(=O)cc(C)n(Cc3ccccc3)c12,–,"inconclusive [activator, single point]"
CCN(CC)CCSc1nnc2c3cc(C)ccc3n(Cc3ccccc3)c2n1,–,"inconclusive [activator, partial curve, poor fit]"
CC(C)N1CCN(c2ccc(OC[C@@H]3CO[C@@](Cn4cncn4)(c4ccc(Cl)cc4Cl)O3)cc2)CC1,–,"inconclusive [activator, partial curve, poor fit]"
CCCCCCCCNS(=O)(=O)CCNCc1ccccc1OC,–,"inconclusive [activator, single point]"
O=C1c2oc3ccccc3c(=O)c2C(c2cccc(O)c2)N1CCCN1CCOCC1 (stereo not given),inactive: -1.68%,–
O=c1c2ccccc2nc2n1CC/C2=C\N1CCN(c2ccc([N+](=O)[O-])cc2)CC1,inactive: -7.83%,–
CCOC(=O)Cc1c(C)nc2c(-c3ccccc3)c(-c3ccccc3)[nH]n2c1=O,–,"inconclusive [activator, single point]"
Cn1ncc([N+](=O)[O-])c1C(=O)Nc1nc2ccccc2n1CCN1CCCCC1,–,"inconclusive [activator, single point]"
Cc1ccc(N2Cc3ccccc3C2=O)cc1,inactive: -3.16%,–
COc1ccc(C2Cc3ccccc3C(=O)O2)cc1 (stereo not given),inactive: -2.77%,–
CC(C)c1noc2ncc(C(=O)c3cc(Cl)cc(Cl)c3O)cc12,–,"inconclusive [activator, full curve]"
O=C(CCN1C(=O)/C(=C\C=C\c2ccccc2)SC1=S)Nc1ccc(C(=O)O)cc1,–,"inconclusive [activator, single point]"
Cc1cccc(-n2nnnc2-c2cnccc2C(F)(F)F)c1C,–,"inconclusive [activator, single point]"
CC12CC3OC3CC1CCC1C2CCC2(C)C1CCC21OCCO1 (stereo not given),–,"inconclusive [activator, single point]"
O=C1C2C3CCC(C3)C2C(=O)N1c1ccc2ccccc2c1 (stereo not given),–,"inconclusive [activator, partial curve, poor fit]"
Cc1c(Cl)cccc1-n1c(SCC(=O)NCc2cccs2)nnc1-c1ccncc1,–,"inconclusive [activator, full curve, poor fit]"
Cc1ccc(OCCC(=O)Nc2ccc(C)c(F)c2)cc1,–,"inconclusive [activator, partial curve, poor fit]"
Cc1ccc(Cl)cc1N1CCN(C(=O)CCCn2c(=O)c3cccn3c3cccnc32)CC1,–,active: 16.4 µM
CCOc1ccc(S(=O)(=O)N(CC(=O)NCc2ccncc2)c2ccc(C)cc2)cc1,–,"inconclusive [activator, partial curve, poor fit]"
O=C(NC1CCCCC1)C(c1cccnc1)N(C(=O)CCl)c1ccccc1Cl (stereo not given),inactive: 6.48%,–

SMILES,"activity, positive = re-replication",Potency
CCC(CO)n1c(=S)[nH]c2cc(OC)c(OC)cc2c1=O (stereo not given),–,"inconclusive [activator, partial curve, poor fit]"
CC(C)Cn1c(CCNC(=O)c2ccco2)nc2ccccc21,inactive: -1.49%,–
O=Cc1ccc(F)c([B-](F)(F)F)c1,inactive: 0.772%,–
O=C1c2cccc3cccc(c23)C(=O)C1(O)O,–,active: 20.6 µM
CCOC(=O)Cn1c(-c2cccnc2Cl)nc2cc(Cl)c(Cl)cc21,inactive: 6.35%,–
CCN(c1ccccc1)c1nc2ccsc2c(=O)s1,–,"inconclusive [activator, single point]"
CC1(C)CC(N2CCN(C(c3ccccc3)c3ccccc3)CC2)=CC(=[N+]2CCCCC2)C1,–,"inconclusive [activator, partial curve, poor fit]"
CCN1/C(=C/c2ccc3cc(C)cc(C)c3[n+]2CC)Sc2cc(C)ccc21,–,active: 5.8 µM
CS(=O)(=O)N(Cc1ccc(C(=O)N2CCc3ccccc3C2)cc1)c1ccccc1,–,"inconclusive [activator, partial curve, poor fit]"
CN1C[C@@H]2[C@@H]3C(=O)N(C)C(=O)[C@@H]3[C@](C)(C1=O)N2C(=O)c1ccccc1,inactive: 1.55%,–
CCC1CCCCN1c1cc(C)nc2cc(-c3cccc(C)c3)nn12 (stereo not given),–,active: 3.55 µM
O=S(=O)(NCCOc1ccccc1Cl)c1ccc2oc3ccccc3c2c1,–,"inconclusive [activator, single point]"
O=C(O)c1ccc(C=C(c2nc3ccccc3s2)c2nc3ccccc3s2)cc1,–,active: 18.4 µM
COc1ccccc1N1CCN(S(C)(=O)=O)CC1,–,"inconclusive [activator, full curve, poor fit]"
COc1ccccc1N1CCN(C(=O)c2cc(-c3ccc(F)cc3)[nH]c2C)CC1,–,"inconclusive [activator, single point]"
CN(Cc1c(F)cccc1Cl)C(=O)c1cc2ccccc2o1,–,"inconclusive [activator, single point]"
CN(C)S(=O)(=O)c1cccc(NC(=S)N/N=C/c2cc(Br)ccc2O)c1,inactive: 67.6%,–
COc1ccc2c(C)cc(SCC#N)nc2c1,–,"inconclusive [activator, single point]"
CC(=O)Nc1ccc(S(=O)(=O)N2CCC(n3cnc4cc(F)ccc43)CC2)cc1,inactive: -0.77%,–
CSc1ccc(/C=C(/NC(=O)c2ccccc2)C(=O)N2CCN(C)CC2)cc1,–,"inconclusive [activator, single point]"
CC(=O)Oc1ccc(N2C(=O)CCC2=O)cc1,inactive: 2.82%,–
COc1ccccc1Nc1cc(C)nc(Nc2ccccc2OC)n1,–,"inconclusive [activator, single point]"
